In article PMC4336329 (PLoS ONE, 2015):
Hit rate of the full screen: of about 310,000 compounds, about 2,200 (0.71%) showed an effect of 50% or more. Effects have a minus sign here. The list shows a part of the results.

Each compound was assayed against human ether-à-go-go-related gene (hERG) potassium channel (human, UniProt Q12809) (assay: primary screen, population patch clamp on CHO cells stably expressing hERG).
Chain of human ether-à-go-go-related gene (hERG) potassium channel (Q12809 whole entry, looked up): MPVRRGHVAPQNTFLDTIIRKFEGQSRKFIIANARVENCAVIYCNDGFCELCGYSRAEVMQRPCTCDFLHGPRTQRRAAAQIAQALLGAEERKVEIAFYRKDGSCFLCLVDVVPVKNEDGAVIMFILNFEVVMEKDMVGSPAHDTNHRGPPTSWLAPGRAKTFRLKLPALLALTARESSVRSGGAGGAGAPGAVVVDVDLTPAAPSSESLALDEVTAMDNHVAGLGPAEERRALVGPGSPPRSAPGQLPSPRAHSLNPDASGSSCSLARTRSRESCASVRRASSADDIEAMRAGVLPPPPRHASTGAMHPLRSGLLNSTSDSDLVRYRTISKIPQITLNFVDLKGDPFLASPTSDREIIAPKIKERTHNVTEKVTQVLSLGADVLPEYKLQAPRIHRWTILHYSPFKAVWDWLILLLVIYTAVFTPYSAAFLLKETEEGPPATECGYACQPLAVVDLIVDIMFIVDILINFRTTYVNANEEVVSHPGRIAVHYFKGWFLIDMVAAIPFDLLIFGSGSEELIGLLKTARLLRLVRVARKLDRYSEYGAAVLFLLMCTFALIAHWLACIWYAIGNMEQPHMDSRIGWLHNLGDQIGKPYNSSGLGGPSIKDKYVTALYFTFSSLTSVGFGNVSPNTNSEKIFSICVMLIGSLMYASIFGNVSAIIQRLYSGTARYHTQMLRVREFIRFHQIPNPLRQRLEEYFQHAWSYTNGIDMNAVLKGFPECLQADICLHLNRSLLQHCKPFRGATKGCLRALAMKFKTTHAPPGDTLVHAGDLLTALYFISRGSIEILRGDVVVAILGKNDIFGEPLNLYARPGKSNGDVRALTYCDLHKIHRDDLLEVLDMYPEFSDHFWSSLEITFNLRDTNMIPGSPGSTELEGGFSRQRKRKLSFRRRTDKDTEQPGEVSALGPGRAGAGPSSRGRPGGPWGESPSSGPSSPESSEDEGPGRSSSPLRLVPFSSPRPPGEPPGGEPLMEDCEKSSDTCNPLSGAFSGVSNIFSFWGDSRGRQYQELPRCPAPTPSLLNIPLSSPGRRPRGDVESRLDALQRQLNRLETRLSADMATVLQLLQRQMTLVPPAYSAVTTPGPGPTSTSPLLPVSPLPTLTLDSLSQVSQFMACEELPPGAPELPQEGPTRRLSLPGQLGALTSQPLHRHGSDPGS

Row | Compound | hERG current change (%, negative = inhibition) at 1uM
1 | CCN(c1ccccc1)S(=O)(=O)c1nnc(NC(=O)c2ccco2)s1 | 8.17%
2 | Cn1c(SCc2ccc([N+](=O)[O-])cc2)nnc1-c1cccnc1 | 13.2%
3 | CC(=O)c1ncnn1CC(=O)c1ccc(Cl)cc1Cl | 8.21%
4 | O=C(CSc1nc2cc(Cl)ccc2s1)NC(=O)NCc1ccco1 | 0.537%
5 | CC(=O)c1c(N2CCCCC2)nc(=S)n(Cc2ccccc2)c1C | 4.19%
6 | Cc1c(C(=O)NCc2ccccn2)sc2nc(-c3ccc(F)cc3)cn12 | -3.62%
7 | COc1ccc(-c2cc(=O)oc3cc(OC(=O)C4CCCCC4)c(Cl)cc23)cc1 | 10.2%
8 | Cc1cccc(C(=O)NC(=S)Nc2ccccc2C(F)(F)F)c1 | -9.39%
9 | COCCn1c(SCC(=O)Nc2ccc(NC(C)=O)cc2)nc2c([nH]c3ccccc32)c1=O | 18.7%
10 | CC1CCN(CCNC(=O)c2ccc3c(=O)n(Cc4ccc(Cl)cc4)c(=S)[nH]c3c2)CC1 | 11.1%
11 | Cc1cc(C)n(CC(=O)NCc2ccccc2)c(=O)c1C#N | 14.5%
12 | COc1ccc(CNC(=O)CN(Cc2ccc(Cl)cc2)S(=O)(=O)c2ccccc2)cc1 | -3.3%
13 | Cc1ccc2c(c1)[C@@H]1CN(C)CC[C@@H]1N2C(=O)Nc1cccc(C(F)(F)F)c1 | -3.98%
14 | CC(C)(C)C(=O)Nc1ccccc1-c1nc2ccccc2[nH]c1=O | 14.3%
15 | CCOc1ccc(OCCC(=O)OCC(=O)NC(C)c2ccccc2)cc1 (stereo not drawn) | 13.9%
16 | CS(=O)(=O)c1sc(C(=O)NC(=O)Nc2cccc(C(F)(F)F)c2)c2c1C=CCC2 | 10.8%
17 | CCOc1ccccc1NC(=O)CCC(=O)Nc1nnc(C2CCCCC2)s1 | 24.7%
18 | COc1ccc(S(=O)(=O)N(C)C)cc1NC(=O)CSc1nnc(-c2cccnc2)o1 | 6.93%
19 | CCc1c(C)n([O-])c2c([n+]1=O)CCCCC2 | 4.86%

Row | Compound | hERG current change (%, negative = inhibition) at 1uM
20 | Cc1c(Cl)cccc1Nc1nc(N)nc(CSc2nc3ccccc3s2)n1 | 9.73%
21 | COc1cc(/C=C(\C#N)c2nc3ccccc3n2C)cc(OC)c1O | -0.376%
22 | Cc1ccc(/C=C/c2nc3ccccc3c(=O)n2CCc2ccccc2)cc1 | 10.8%
23 | COC(=O)C1=C(CSc2nnnn2C)NC(=O)NC1c1cc(C)ccc1C (stereo not drawn) | 8.34%
24 | CCC(C)NC(=O)CSc1nnc(-c2ccc(OC)c(OC)c2)c(-c2ccc(OC)c(OC)c2)n1 (stereo not drawn) | 11.7%
25 | CCN(CC)Cc1csc2ccc(Br)cc12.Cl | 4.23%
26 | COCCCNC(=O)CCn1c(=O)c2ccccc2n(CC(=O)Nc2ccc(C)cc2C)c1=O | 15.6%
27 | COc1ccc(N2CCN(CCNC(=O)CCN3C(=O)COc4ccccc43)CC2)cc1 | -15%
28 | Cc1nc(SCc2ccccc2)c2oc3ccccc3c2n1 | 12.8%
29 | CC1(NC(=S)NCCO)CCS(=O)(=O)C1 (stereo not drawn) | 12.8%
30 | CC(Oc1ccc(C(=O)c2ccccc2)cc1)C(=O)Nc1ccc(S(N)(=O)=O)cc1 (stereo not drawn) | 10.4%
31 | Cc1cc(C(=O)NNC(=O)c2cccc(N(C)C)c2)c(C)o1 | 6.29%
32 | O=C(Cn1cnc2ccccc21)OCC(=O)N1CCc2ccccc2C1 | -1.89%
33 | COc1ccc2c(CC(=O)Nc3nc(C)cs3)coc2c1 | 5.62%
34 | COc1ccc(/C=C/C(=O)OCC(=O)Nc2ccc(Cl)c(S(=O)(=O)N(C)C)c2)cc1OC | 12.8%
35 | CCNc1nc(NCC)nc(NC(N)=S)n1 | 16.3%
36 | O=C(COc1ccc(Cl)cc1Cl)OCC(=O)N1CCCc2ccccc21 | 8.61%
37 | COc1ccccc1N1CCN(Cc2ccc(O)c3ncccc23)CC1 | 5.18%
38 | C=C(Cl)COc1ccc2c(CCCC)cc(=O)oc2c1 | 5.38%

Row | Compound | hERG current change (%, negative = inhibition) at 1uM
39 | Nc1nc(SCC(=O)Nc2cccnc2Cl)n[nH]1 | 3.67%
40 | CC(C)(C)NC(=O)COC(=O)c1cc(Cl)ccc1[N+](=O)[O-] | 13.1%
41 | CC(=O)N1N=C(c2cccc(Cl)c2)OC1c1cccc([N+](=O)[O-])c1 (stereo not drawn) | 14%
42 | Cc1ccc(OCCCOc2cccc3cccnc23)cc1C | 6.68%
43 | CCOC(=O)N/N=C1\CCS(=O)(=O)c2ccc(Cl)cc21 | 12.3%
44 | Cc1nn(Cc2ccccc2)c(C)c1NC(=O)CCC(=O)O | 6.42%
45 | Cc1cc(-c2csc(NC(=O)c3ccc(=O)[nH]c3)n2)c(C)n1Cc1ccco1 | 9.16%
46 | O=[N+]([O-])c1ccccc1S(=O)(=O)Nc1ncccn1 | 10.9%
47 | CCOC(=O)C1C(c2cccc(F)c2)NC(=S)NC1(O)C(F)(F)F (stereo not drawn) | 10.1%
48 | COCCCNC(=O)CN(c1ccc(Cl)c(Cl)c1)S(C)(=O)=O | 4.16%
49 | Cn1cc(C(=O)NC2CCCCC2)c(=O)c2cc(S(=O)(=O)N3CCOCC3)ccc21 | 14%
50 | Cn1c(=O)c(C(=O)NCCc2ccc(Cl)cc2)c(O)c2ccccc21 | 15.6%
51 | COc1cccc(/C=N/N2CCN(C)CC2)c1.O=P(O)(O)O | 2.14%
52 | Cc1ccc(F)cc1NC(=O)N1CCNC(=O)C1CC(=O)Nc1cc(Cl)ccc1Cl (stereo not drawn) | 12.1%
53 | Cc1cc(C(=O)Nc2ccc(F)cc2C)n(-c2ccccc2)n1 | 9.93%
54 | Cc1ccc2cc(NC(=O)c3cccc(F)c3)ccc2n1 | 1.58%
55 | COc1ccc(CCNC(=O)CN2C(=O)c3ccccc3C2=O)cc1 | 10.9%
56 | CCOc1ccc(C(C)NC(=O)c2cccc(F)c2)cc1 (stereo not drawn) | 29.7%
57 | COc1ccc(S(=O)(=O)Nc2ccccc2C(=O)Nc2nc(-c3ccc(F)cc3)cs2)cc1OC | -3.98%
